Here are results for 44 sequences from the supplement of paper PMC11417369.

± gives the standard deviation of the averaged measurements. Some of the results follow.

The subject of the assay is PfAP2-I AP2 domain 3 (GST-tagged). Briefly: gcPBM binding intensity (ln(normalized median fluorescence intensity)); higher = stronger DNA binding. In short, it runs like this: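 The binding buffer was 1× PBS containing 1% milk, 0.2 mg/ml BSA, 0.5% salmon testes DNA and 0.03% Triton X-100. In it, GST-tagged P. falciparum DNA-binding domains expressed in E. coli were applied for 1 h to an Agilent 4 × 180k array of primer-extended double-stranded 36-bp intergenic genomic probes plus negative controls. Binding intensity, read with Alexa488 anti-GST antibody and a 488 nm scan, is the highest Masliner-normalised natural-log median intensity across replicate spots of either probe orientation.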
With “TTATATGCTCAATGTTGTACATGTAGATATATATAT [XGTACX_site8211]”, the “gcPBM binding intensity (ln)” value turned out to be 8.89 ± 0.092. As for “ATCTGTCGACAGGACAGTACACAGTAGCCAGTAACT [XGTACX_site2001]”, the “gcPBM binding intensity (ln)” value was found to be 7.63 ± 0.76. In the case of “AAGTATGTCGACTGTTGTACTTTTATCATTTATTAT [XGTACX_site1129]”, the “gcPBM binding intensity (ln)” value was 7.9 ± 0.73. Consider “ATATACTATGATAATACATGCGATAATACATTTTTA [TGCATGCA_site387]”, for which the “gcPBM binding intensity (ln)” value is 7.55 ± 0.73. To “TATTTATCATCATATTGTACATTATATATATAAAAT [XGTACX_site6675]” belongs 7.75 ± 0.32. In the case of “AATAAAAAAATGTCACGTACTTATTTTATTAAACCT [XGTACX_site3031]”, the “gcPBM binding intensity (ln)” value worked out at 7.76 ± 0.49. “GTATGGCGTATCATATGTACTAAAAAAAAATAAAAA [XGTACX_site5101]”: the “gcPBM binding intensity (ln)” value worked out at 7.79 ± 0.5. To “TTAAATGAAAAAATATGTACGTATAATAAGAAATAT [XGTACX_site6619]” belongs 8.28 ± 0.59; to “TTTTTTCTTAGTTATACATGCAAAATAAATAAATAA [TGCATGCA_site410]”, 7.97 ± 0.71; to “TATTTTTTCTTAAACACACACATATATATATAGAAT [CACACA_site2836]”, 7.88 ± 0.47. With “GTATGAGTCGTAGAGTGTACTCTGGAGAAAACTACA [XGTACX_site4942]”, the “gcPBM binding intensity (ln)” value was 7.64 ± 0.57. For the sequence “TATATATTTATTAAATGTACATAACAAAAATGGTAT [XGTACX_site3577]”, the “gcPBM binding intensity (ln)” value stood at 7.95 ± 0.47. In the case of “ATTTATATATAATTTTGTACGAAAAAAATAAGGTAT [XGTACX_site3578]”, the “gcPBM binding intensity (ln)” value was 8.1 ± 0.6.

“TGCATACATAAATGTATATATTAATATATATCATAT [GTGCAC_negctrl_site252]”: the “gcPBM binding intensity (ln)” value was 7.47 ± 0.41. Consider “AAATAAAGTAAAATATGTACATAAATTAAAACACAT [XGTACX_site8539]”, for which the “gcPBM binding intensity (ln)” value amounted to 8.08 ± 0.62.

Take “TATACGAAATTGTGCACACATATATTTATGTATGTA [CACACA_site1509]”: the “gcPBM binding intensity (ln)” value was 10.48 ± 0.099. For the sequence “AATACATAATAACATGTACACACATTCTTCTATAAA [CACACA_site9344]”, the “gcPBM binding intensity (ln)” value was determined as 7.96 ± 0.46.

Consider “AAAAAAAACGAACACACACACATACAAAATCTATAT [CACACA_site6795]”, for which the “gcPBM binding intensity (ln)” value amounted to 7.81 ± 0.61. To “TTAAAAGAATATAATGCACACATTATTTTATTTTAT [CACACA_site3772]” belongs 10.9 ± 0.73; to “TACCCACGTATATATATACACACTAATATACACCCA [CACACA_site9381]”, 8.13 ± 0.45. Consider “AAAAGATTTATACATACACACATATTATAGTCACAT [CACACA_site7701]”, for which the “gcPBM binding intensity (ln)” value is 7.8 ± 0.67. As to “TACACCCTATTTTTATGTACTTATTTGATTTACACA [XGTACX_site8172]”, the “gcPBM binding intensity (ln)” value stood at 7.88 ± 0.49. As for “ATATAAATACGGTGTGCACACACATAATATATATAT [CACACA_site2271]”, the “gcPBM binding intensity (ln)” value was found to be 9.52 ± 0.26.

On to “CAAGAAAATGGACACACACACATATATATATATATA [CACACA_site6010]”, for which the “gcPBM binding intensity (ln)” value amounted to 9.39 ± 0.33. To “CAAATTTAAAAAAAATCACACACAGAAAAAAAAAAA [CACACA_site8728]” belongs 8.09 ± 0.79. As to “TTTGTTTTAAATATTATACACACGTAAAAGTAGAAT [CACACA_site214]”, the “gcPBM binding intensity (ln)” value was found to be 8.21 ± 0.42. Turning to “GGAAACCTTTTTTTTACACACAATATATTAATACTT [CACACA_site1403]”, the “gcPBM binding intensity (ln)” value was determined as 7.86 ± 0.67. In the case of “GTGTAATTATCAGCATAAATATGGTACATACATAAA [CACACA_negctrl_site323]”, the “gcPBM binding intensity (ln)” value is 7.97 ± 0.39. The value for “TGTATACGCATATGTACACACATATATATGTATATG [CACACA_site3087]” was 7.89 ± 0.23. “TTTTTTTTTTTGTTCACACATATACTTTTATTTTGG [CACACA_site4250]”: the “gcPBM binding intensity (ln)” value worked out at 8.34 ± 0.8. The value for “AATGCTATCATTAATGCACACATTTAAACTTAATAT [CACACA_site5878]” was 11 ± 0.61; that for “TATAACGCTTGCAGCTGTACAAAAATAATCAAACTG [XGTACX_site2464]” was 7.71 ± 0.39. For the sequence “TTCTTGGAATACAAGTGTACTTTATTATTATTATTA [XGTACX_site5997]”, the “gcPBM binding intensity (ln)” value came to 7.86 ± 0.4. With “ATAGAAAGTGACAATTGTACATACATATTATATATA [XGTACX_site4390]”, the “gcPBM binding intensity (ln)” value stood at 7.96 ± 0.38. To “TTTTTTTTTGCCTACTGTACTATTTTTGAGCTCACC [XGTACX_site7967]” belongs 8.34 ± 0.24; to “AAAAAAAAAAAAAAAAAAAAATTTCAATTATATTGA [GTGCAC_negctrl_site642]”, 9.28 ± 0.071. “AAAATTATAATATATACACACATATATATATTAAAT [CACACA_site473]”: the “gcPBM binding intensity (ln)” value came to 7.54 ± 0.54. On to “AGATAAAAAAAGTACACACACACATATATATATATA [CACACA_site3072]”, for which the “gcPBM binding intensity (ln)” value was 9.34 ± 0.38.

For the sequence “AAGCTTCCTTAATATACACACATATCTGAGTATATT [CACACA_site5939]”, the “gcPBM binding intensity (ln)” value was 7.67 ± 0.54. Take “CAAAATATAGATGACACACACAAAAAAAGTATATTA [CACACA_site6848]”: the “gcPBM binding intensity (ln)” value was determined as 7.53 ± 0.7.

Take “CATTTACCCTTATTAACACACAAAATATAATACGCT [CACACA_site2565]”: the “gcPBM binding intensity (ln)” value came out at 8.03 ± 0.43. As to “ATTTACATTCACTTATGTACTTATATAATTTTATTT [XGTACX_site8150]”, the “gcPBM binding intensity (ln)” value turned out to be 7.88 ± 0.46.

Turning to “TACATATGAAAATACACACATACATACATATATATA [CACACA_site1673]”, the “gcPBM binding intensity (ln)” value turned out to be 8.1 ± 0.56. As to “TAACTCCACAAATAATGTACATATATCACTATATTT [XGTACX_site4911]”, the “gcPBM binding intensity (ln)” value is 7.76 ± 0.59.
